This is one part of the list.

The test system of this assay is HSkMC (human skeletal muscle cells). Briefly: cytotoxicity call (relative viability < 0.9). To be noted: 10 µM.
For `COc1ccc([Si](C)(C)[C@H]2[C@H](CCn3cc([C@H](O)c4ccccc4)nn3)O[C@@]3(C(=O)N(Cc4cccc(N5CCC5=O)c4)c4ccccc43)[C@@H]2C)cc1`, the cytotoxicity call is “inactive”.
In the case of `O=C(Cc1ccccn1)NCC[C@@H]1CC[C@@H](NC(=O)CN2CCOCC2)[C@@H](CO)O1` it was “inactive”; in that of `C[C@@H]1CN([C@@H](C)CO)C(=O)c2cc(NC(=O)Nc3ccc(C(F)(F)F)cc3)ccc2O[C@@H](C)CCCCO[C@H]1CN(C)S(=O)(=O)c1cn(C)cn1`, “inactive”.
In the case of `CCCNC(=O)N1CC[C@]2(CC1)CN([C@H](CO)c1[nH]c3cc(ccc3c12)OC)C(=O)CN1CCOCC1` it was “inactive”; in that of `C[C@@H]1CN([C@@H](C)CO)C(=O)Cc2cc(NC(=O)Nc3ccc(C(F)(F)F)cc3)ccc2O[C@H]1CN(C)C(=O)Nc1ccc2c(c1)OCO2`, “inactive”.
Regarding `CC(C)Nc1ncnc(N)c1[N+](=O)[O-]`, the cytotoxicity call was “inactive”.
Next, `COc1ccccc1CNC(=O)C[C@H]1C[C@H]2c3cc(NC(=O)Cc4ccncc4)ccc3O[C@H]2[C@@H](CO)O1`: “inactive”.
In the case of `C[C@H]1CCCCO[C@H](CN(C)C(=O)NC2CCCCC2)[C@@H](C)CN([C@@H](C)CO)C(=O)c2cc(NS(=O)(=O)c3ccccc3)ccc2O1` it was “inactive”.
Next, `N[C@@H](C(=O)O)c1ccc(C(=O)O)c(O)c1`: “inactive”; `CO[C@@H]1CN(C)C(=O)c2ccc(NS(C)(=O)=O)cc2OC[C@H](C)N(C(=O)c2ccc3c(c2)OCO3)C[C@H]1C`: “inactive”.
As for `C=CCC[C@@H](Cc1ccc(F)cc1)C(=O)OC[C@@H]1CCCN1C(=O)[C@@H](CC=C)CC(=O)N(CCO)Cc1ccccc1`, the cytotoxicity call was “inactive”.
In the case of `C[C@H]1CCCCO[C@H](CN(C)C(=O)Nc2ccc(C(F)(F)F)cc2)[C@@H](C)CN([C@@H](C)CO)C(=O)c2cc(NS(C)(=O)=O)ccc2O1` it was “inactive”.
In the case of `CN1C(=O)c2cc(NC(=O)Cc3cccs3)ccc2OC[C@@H]2O[C@H](CC(=O)NCCc3ccncc3)CC[C@H]21` it was “inactive”; in that of `CCCN1C[C@H](C)[C@H](OC)CN(C)C(=O)c2ccc(NS(=O)(=O)c3cn(C)cn3)cc2OC[C@H]1C`, “inactive”; in that of `C=CCn1c(=O)c2c(nc(NCCO)n2C)n(C)c1=O`, “inactive”.
Next, `COc1ccc2nc(Cl)sc2c1`: “inactive”.
With `COCCNC(=O)C[C@@H]1CC[C@H]2[C@@H](COC[C@H](O)CN2S(=O)(=O)c2ccccc2F)O1`, the cytotoxicity call was “inactive”.
Next, `Cc1ccc(S(=O)(=O)Nc2ccc3c(c2)C(=O)N([C@H](C)CO)C[C@@H](C)[C@@H](CN(C)Cc2ccc(C(=O)O)cc2)OCCCC[C@H](C)O3)cc1`: “inactive”.
In the case of `COc1ccc(S(=O)(=O)N(C)C[C@H]2Oc3ccc(NS(=O)(=O)c4cccs4)cc3C(=O)N([C@@H](C)CO)C[C@H]2C)cc1` it was “inactive”; in that of `Cc1noc(C)c1NC(=O)N(C)C[C@H]1Oc2ccc(NC(=O)C3CC3)cc2CC(=O)N([C@H](C)CO)C[C@@H]1C`, “inactive”.
Consider `CN1CCN(C(=O)C[C@@H]2CC[C@H]3[C@@H](COC[C@@H](O)CN3CC3CCCC3)O2)CC1`, for which the cytotoxicity call is “inactive”.
Next, `Cn1nnc2c1[C@H](COCC1CC1)CNC2`: “inactive”.
On to `C[C@H]1CCCCO[C@H](CN(C)S(=O)(=O)c2ccc(Cl)cc2)[C@@H](C)CN([C@@H](C)CO)C(=O)c2cc(NC(=O)c3ccccc3)ccc2O1`, for which the cytotoxicity call is “inactive”.
In the case of `Cc1ccccc1S(=O)(=O)N1C[C@@H](O)COC[C@H]2O[C@@H](CC(=O)N3CCC(Cc4ccccc4)CC3)CC[C@@H]21` it was “inactive”; in that of `CC(C)NC(=O)N(C)C[C@H]1Oc2cc(-c3ccccc3F)ccc2S(=O)(=O)N([C@H](C)CO)C[C@H]1C`, “inactive”.
In the case of `C[C@H](CO)N1C[C@H](C)[C@H](CN(C)C(=O)Nc2cccc(F)c2)OCCCC[C@H](C)Oc2ccc(NC(=O)C3CCCCC3)cc2C1=O` it was “inactive”; in that of `C[C@@H]1CN([C@H](C)CO)C(=O)c2cc(NC(=O)Nc3cccc4ccccc34)ccc2O[C@H]1CN(C)C(=O)NC1CCCCC1`, “active”; in that of `C[C@H](CO)N1C[C@H](C)[C@@H](CN(C)Cc2ccc(C(F)(F)F)cc2)Oc2ccc(NC(=O)C3CCCCC3)cc2C1=O`, “inactive”.
In the case of `C[C@@H]1CN([C@@H](C)CO)C(=O)c2cc(NS(=O)(=O)c3ccccc3)ccc2O[C@@H](C)CCCCO[C@H]1CN(C)Cc1ccc(C(F)(F)F)cc1` it was “inactive”.
For `Cc1ccc(S(=O)(=O)Nc2ccc3c(c2)C(=O)N([C@@H](C)CO)C[C@@H](C)[C@@H](CN(C)S(=O)(=O)c2ccc(F)cc2)O3)cc1`, the cytotoxicity call was “inactive”.
In the case of `CNCC1CCOCC1` it was “inactive”.
In the case of `CC(=O)CCc1ccc(OC(C)=O)cc1` it was “inactive”; in that of `C[C@@H]1CN([C@@H](C)CO)C(=O)Cc2cc(NC(=O)CCN3CCOCC3)ccc2O[C@H]1CN(C)CC1CC1`, “inactive”.
In the case of `COc1ccc(CN(C)C[C@@H]2OCCCC[C@@H](C)Oc3ccc(NC(=O)Nc4ccc(OC)cc4)cc3C(=O)N([C@H](C)CO)C[C@@H]2C)cc1` it was “inactive”.
As to `O=C(O)C(O)C(O)C(O)C(O)C(=O)O` (stereo not given), the cytotoxicity call is “inactive”.
Turning to `C[C@H]1CN([C@@H](C)CO)C(=O)c2cc(C#CCN(C)C)cnc2O[C@H]1CN(C)Cc1cccc(C(=O)O)c1`, the cytotoxicity call is “inactive”.
Next, `Cc1noc(C)c1NC(=O)N[C@H]1C=C[C@H](CC(=O)NCCCN(C)C)O[C@@H]1CO`: “inactive”; `O=C(CS)NCCCCCNC(=O)[C@@H]1C[C@@H]2C(=O)N[C@@H](Cc3ccccc3)C(=O)N2[C@@H]1c1ccc(O)cc1`: “inactive”; `C[C@H]1Cc2cc(S(=O)(=O)N(C)CC(=O)N3CCOCC3)ccc2N1C(=O)C1CC1`: “inactive”.
In the case of `O=C(C[C@@H]1C=C[C@@H](NC(=O)CN2CCOCC2)[C@@H](CO)O1)NC1CCCCC1` it was “inactive”.

Source of the values: the antibiotic and cytotoxicity screens of Wong et al. (2023).
